Assay results as given in PubChem BioAssay (NCATS).
“And” between values parts separate entries of the source, which are not always exact repeats. Equal entries are not always repeated. The inconclusive results got no clear call from the source; some entries with a clear call stand among them for comparison. For part of these data: A potency beside an inconclusive call is a rough fit, not a confirmed value. The source made the active and inactive calls. Unless noted, calls come from the whole dose curve; as a rule, active = well fitted curve in the direction sought with a large enough effect; inconclusive = small, poorly fitted or top-dose-only effect, or another doubt; inactive = no such curve, though single readings can be large; an effect the other way counts as inactive or inconclusive.

Columns and labels:
[1] = NFAT Signaling Pathway (AID 444; active = well fitted curve in either direction with a large enough effect, not every such curve was filed as active; inconclusive = small, poorly fitted or top-dose-only effect, or another doubt;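 note: carbachol stimulus at about its EC50 of 1 µM final; % is set by controls: 0 for no effect and ±100 for the full control effect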); conditions: Jurkat NFAT-bla M1, carbachol, beta-lactamase ratio, 5 h; at 7.69 µM (top of the series) unless noted
Summary of the method: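 Jurkat cells with NFAT-driven β-lactamase reporter and co-expressed M1 receptor, stimulated with carbachol (final 1 uM, ~EC50), compound titration, 5 h at 37 °C. CCF4 loaded 1 h at RT; 460/530 nm ratio gave %activity and AC50.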

[2] = target: Mitogen-activated protein kinase 10 (Mus musculus) (UniProt Q61831); assay: JNK3 AlphaScreen Assay (AID 530; active = well fitted curve in either direction with a large enough effect, not every such curve was filed as active; inconclusive = small, poorly fitted or top-dose-only effect, or another doubt;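 note: kinase came from lysate of stimulated human HepG2 cells; signal reports phosphorylation of biotinylated GST-cJun 1-79 at Ser73 with 10 µM ATP; % is set by controls: 0 for no effect and ±100 for the full control effect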); conditions: JNK3 lysate, c-Jun phosphorylation; activity change, negative = inhibition: at 57.1 µM (top of the series)
Summary of the method: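 Pre-activated (IL-1β/TNFα) JNK3 in HepG2 lysates phosphorylates biotin-GST-cJun(1-79), 10 uM ATP; anti-phospho-cJun(Ser73) AlphaScreen read at room temperature, pH 7.6 Tris buffer. Compounds pre-incubated 15 min as titrations.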

[3] = qHTS Assay for Identification of Small Molecule Agonists for Hypoxia Response Element Signaling Pathway (AID 914; active = well fitted activation curve with a large enough effect in the signal ratio, with a control signal flat, not every such curve was filed as active; inconclusive = small, poorly fitted or top-dose-only effect, or effect the other way, or a change in a side signal; the % refers to the signal ratio; note: potency is the fitted concentration of half-maximal effect); conditions: ME-180 HRE-bla reporter, beta-lactamase ratio, CoCl2, 17 h; activation: stronger effect = higher value
Summary of the method: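 HRE-bla ME-180 cells, overnight plating in Opti-MEM with 0.5% dialyzed FBS; cpd titration + EC50 CoCl2, 17 h, 37 degrees Celsius; CCF4 2.5 h RT; 460/530 nm ratio; AC50.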

[4] = target: Cytochrome P450 1A2 (Homo sapiens) (UniProt P05177); assay: p450-cyp1a2 (AID 410; calls by dose curve; note: potency is the fitted concentration of half-maximal effect)
Summary of the method: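 20nM CYP1A2 with 100uM Luciferin-ME (at Km) in 100mM KPO4; compound preincubated 10 min, NADPH regeneration added, 60 min at room temperature. Luciferin quantified by luminescence after detection reagent; normalized to 57 uM furafylline.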

[5] = target: Ubiquitin carboxyl-terminal hydrolase 1 (Homo sapiens) (UniProt O94782); assay: Inhibitors of USP1/UAF1: Pilot qHTS (AID 504865);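 note: rhodamine fluorescence freed from ubiquitin-rhodamine substrate followed over time; potency is the fitted concentration of half-maximal effect; nearly all actives have a fitted effect of over 35% in size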
Summary of the method: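 1nM USP1/UAF1 + cpd, 15 min RT; start w/ Ub-Rho 150nM final; kinetic FL 480/540 nm, 6 reads q60 s. Buffer 50mM HEPES pH 7.8, 0.5mM EDTA, 1mM TCEP, 0.01% Tween-20, 0.1 mg/ml BSA.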

[6] = AP1 Signaling Pathway (AID 357; active = well fitted curve in either direction with a large enough effect, not every such curve was filed as active; inconclusive = small, poorly fitted or top-dose-only effect, or another doubt; note: top concentration of the series differs between compounds; % is set by controls: 0 for no effect and ±100 for the full control effect); conditions: ME-180 AP-1-bla reporter, EGF-induced, beta-lactamase ratio, 5 h; at 7.69 µM (top of the series) unless noted
Summary of the method: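 AP-1-bla ME-180 cells with beta-lactamase reporter under AP-1 response element, stimulated with EC50 EGF; compounds titrated, 5 hours at 37 degrees Celsius. CCF4 read at 460/530 nm ratio; positive and negative modulators judged by AC50.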

[7] = Stat Signaling Pathway (AID 446; active = well fitted curve in either direction with a large enough effect, not every such curve was filed as active; inconclusive = small, poorly fitted or top-dose-only effect, or another doubt;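 note: ME-180 cervical cancer cells given 40 pM IL-6 alongside compound; SIE-controlled beta-lactamase reporter measured as 460/530 nm FRET emission ratio; top concentration of the series differs between compounds; % is set by controls: 0 for no effect and ±100 for the full control effect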); conditions: ME-180 SIE beta-lactamase reporter, IL-6 stimulated, 5 h; at 7.69 µM (top of the series) unless noted
Summary of the method: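 ME-180 cells carrying a SIE-driven beta-lactamase reporter are stimulated with 40 pM IL-6 for 5 h at 37C in the presence of compound. The 460/530 nm FRET substrate ratio is read after 2.5 h at RT. Data are normalised to 300 pM IL-6 and to 125 nM JAK inhibitor controls.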

[8] = target: Cytochrome P450 3A4 (Homo sapiens) (UniProt P08684); assay: qHTS Assay for Activators of Cytochrome P450 3A4 (AID 885); note: potency is the fitted concentration of half-maximal effect; nearly all actives have a fitted effect of over 65% in size
Summary of the method: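 Human CYP3A4 (20 nM) with Luciferin-PPXE at 25 uM (its KM) in 200 mM KPO4; 10 min compound preincubation, then NADPH regeneration and 60 min reaction at RT. Luciferin read by luminescence; normalized to 57 uM ketoconazole full inhibition.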

[9] = target: Glucocorticoid receptor (Homo sapiens) (UniProt P04150); assay: GR-EFC Redistribution (AID 451; calls by dose curve; note: potency is the fitted concentration of half-maximal effect); conditions: CHO-K1 GR-EFC translocation, beta-gal luminescence, 2 h
Summary of the method: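 CHO-K1 cells expressing nuclear EA and GR-ED fragments of b-gal; compounds titrated up to 46 uM final, 2 h at 37 C. GR nuclear translocation read as complemented b-gal luminescence after 1 h RT detection.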

[10] = qHTS for differential inhibitors of proliferation of Plasmodium falciparum line 7G8 (AID 1815);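 note: potency is the fitted concentration of half-maximal effect; parasite growth measured after three days of incubation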
[11] = qHTS for differential inhibitors of proliferation of Plasmodium falciparum line GB4 (AID 1816); conditions: Potency: Plasmodium falciparum GB4 proliferation inhibition;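 note: potency is the fitted concentration of half-maximal effect; parasite growth measured after 72 h incubation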
[12] = qHTS for differential inhibitors of proliferation of Plasmodium falciparum line 3D7 (AID 1876); note: potency is the fitted concentration of half-maximal effect;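 for activity, negative = inhibition: parasite growth measured after three days of culture; 0% = vehicle wells and -100% = reference inhibitor wells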
[13] = qHTS for differential inhibitors of proliferation of Plasmodium falciparum line D10 (AID 1877);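 note: potency is the fitted concentration of half-maximal effect; parasites grown with compound for 72 h before DNA staining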
[14] = qHTS for differential inhibitors of proliferation of Plasmodium falciparum line W2 (AID 1883); conditions: Potency: Plasmodium falciparum W2 proliferation inhibition;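 note: parasites grown with compound for 72 h before lysis and staining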; note: potency is the fitted concentration of half-maximal effect;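 for activity change, negative = inhibition: 0% = vehicle wells and -100% = control inhibitor wells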
[15] = target: RecQ-like DNA helicase BLM (Homo sapiens) (UniProt P54132); assay: qHTS Validation Assay for Inhibitors of Bloom's syndrome helicase (BLM) (AID 2364); note: potency is the fitted concentration of half-maximal effect
Summary of the method: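 50 nM BLM preincubated 15 min at room temperature with compound in pH 8.0 Tris buffer containing 2.5 ug/ml poly(dI-dC); started with 200 nM TAMRA/BHQ-2 forked duplex and 2 mM ATP (final). Unwinding read as TAMRA fluorescence increase, two reads 2 h apart.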

[16] = Quantitative high throughput screen for delayed death inhibitors of the malarial parasite plastid, 96 hour incubation (AID 488745); note: potency is the fitted concentration of half-maximal effect; nearly all actives have a fitted effect of over 70% in size
Summary of the method: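 Luciferase-expressing P. falciparum in erythrocytes (2% hematocrit, 0.1% parasitemia) incubated with compound for 96 h at 37 C, 5% CO2, in RPMI 1640 with 0.5% Albumax. Growth inhibition read as decreased luminescence.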

[17] = Validation screen for small molecules that induce genotoxicity in human embryonic kidney (HEK293T) cells expressing luciferase-tagged ELG1 (AID 493106); note: potency is the fitted concentration of half-maximal effect
Summary of the method: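 HEK293T cells expressing luciferase-tagged ELG1, 2,000 cells/well, exposed to compound 16 hr at 37 °C, 5% CO2. Luciferase read after ONE-Glo, 30 min at room temperature; increased signal indicates genetic stress.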

[18] = target: Cytochrome P450 2C9 (Homo sapiens) (UniProt P11712); assay: qHTS Assay for Inhibitors and Substrates of Cytochrome P450 2C9 (AID 883); note: potency is the fitted concentration of half-maximal effect; nearly all actives have a fitted effect of over 60% in size
Summary of the method: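 10nM CYP2C9 + 100uM Luciferin-H (=KM), 25mM KPO4; cpd 10 min 37C; NADPH regen, 60 min 37C; stop/detect with P450 Glo-Buffer 20 min; luminescence. Norm. to 57uM sulphaphenazole as full inhibition.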

[19] = target: Tyrosyl-DNA phosphodiesterase 1 (Homo sapiens) (UniProt Q9NUW8); assay: Confirmation Assay for Inhibitors of Tyrosyl-DNA Phosphodiesterase (TDP1) (AID 489007); conditions: recombinant human TDP1 enzymatic activity, dose-response; note: potency is the fitted concentration of half-maximal effect; nearly all actives have a fitted effect of over 40% in size
Summary of the method: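 Recombinant human Tdp1 (1 nM final), expressed in E. coli, preincubated 15 min with compound. Then 15 nM 5'-biotin/3'-phosphotyrosine-FITC DNA substrate added for 5 min at room temperature. AlphaScreen beads (10 ug/ml) added for 10 min; cleavage gives signal loss.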

[20] = target: 3',5'-cyclic-AMP phosphodiesterase 4B (Homo sapiens) (UniProt Q07343); assay: qHTS Assay for Inhibitors of PDE-IV (AID 607; active = well fitted activation curve with a large enough effect in the main read-out, with a control signal flat, not every such curve was filed as active; inconclusive = small, poorly fitted or top-dose-only effect, or effect the other way, or a change in a side signal; note: potency is the fitted concentration of half-maximal effect; for activation (PDE inhibition): % of control where 0% means no effect); conditions: HEK293 ACTOne CNG channel cells, membrane potential fluorescence; activation (PDE inhibition): at 22.9 µM (top of the series)
Summary of the method: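 HEK293 ACTOne cells with CNG channel (1000/well), endogenous PDE4; membrane potential dye, compounds up to 22.9 uM final. Fluorescence Ex 535/Em 590; RO 20-1724 (100 uM final) as reference.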

[21] = qHTS Assay for Identification of Small Molecule Antagonists for NFkB Signaling Pathway (AID 895; active = well fitted inhibition curve with a large enough effect in the signal ratio, with a control signal flat, not every such curve was filed as active; inconclusive = small, poorly fitted or top-dose-only effect, or effect the other way, or a change in a side signal; the % refers to the signal ratio; note: potency is the fitted concentration of half-maximal effect); conditions: NFkB beta-lactamase reporter cells, FRET ratio 460/530, stimulated with 10 pM TNF alpha; activity change, negative = inhibition: at 38.3 µM (top of the series)
Summary of the method: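 ME-180 NFkB-bla cells (beta-lactamase under NFkB response element), plated overnight, treated with compound then 10 pM TNF alpha (about EC50) for 5 hrs at 37 C. LiveBLAzer FRET read at 460/530 nm emission, 405 nm excitation.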

[22] = qHTS Assay for Identification of Small Molecule Agonists for Thrombopoietin (TPO) Signaling Pathway (AID 917); note: % is set by controls: 0 for no effect and ±100 for the full control effect
Summary of the method: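 Activators of TPO signaling were sought in murine Ba/F3 cells transfected with the human receptor, using a luciferase gene driven by the Glycoprotein IIb promoter; 24-hr compound exposure at 37 C alongside 26 pM TPO, in IL-3-free medium.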
Tags give direction and shape of the fitted curve or compound fluorescence and quenching.

UniProt Q07343, sequence (Q07343 whole entry, looked up): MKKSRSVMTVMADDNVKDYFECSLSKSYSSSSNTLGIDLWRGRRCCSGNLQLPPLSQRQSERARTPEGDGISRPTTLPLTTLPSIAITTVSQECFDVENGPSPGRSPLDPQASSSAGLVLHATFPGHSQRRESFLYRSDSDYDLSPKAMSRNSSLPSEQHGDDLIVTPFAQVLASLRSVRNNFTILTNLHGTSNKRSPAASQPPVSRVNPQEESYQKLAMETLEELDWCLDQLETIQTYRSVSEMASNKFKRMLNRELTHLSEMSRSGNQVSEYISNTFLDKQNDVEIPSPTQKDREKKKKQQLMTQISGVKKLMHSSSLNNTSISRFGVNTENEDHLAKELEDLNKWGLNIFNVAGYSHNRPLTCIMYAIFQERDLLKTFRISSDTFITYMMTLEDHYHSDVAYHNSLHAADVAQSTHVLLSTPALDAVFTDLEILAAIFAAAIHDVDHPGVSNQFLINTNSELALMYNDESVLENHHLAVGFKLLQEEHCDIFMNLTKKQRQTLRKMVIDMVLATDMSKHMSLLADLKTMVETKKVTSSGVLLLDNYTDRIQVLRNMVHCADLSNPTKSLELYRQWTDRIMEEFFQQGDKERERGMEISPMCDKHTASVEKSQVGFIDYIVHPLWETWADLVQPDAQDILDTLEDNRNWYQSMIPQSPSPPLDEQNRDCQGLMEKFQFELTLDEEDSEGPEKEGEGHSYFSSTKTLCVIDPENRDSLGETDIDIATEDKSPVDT
UniProt P54132, sequence (P54132 whole entry, looked up): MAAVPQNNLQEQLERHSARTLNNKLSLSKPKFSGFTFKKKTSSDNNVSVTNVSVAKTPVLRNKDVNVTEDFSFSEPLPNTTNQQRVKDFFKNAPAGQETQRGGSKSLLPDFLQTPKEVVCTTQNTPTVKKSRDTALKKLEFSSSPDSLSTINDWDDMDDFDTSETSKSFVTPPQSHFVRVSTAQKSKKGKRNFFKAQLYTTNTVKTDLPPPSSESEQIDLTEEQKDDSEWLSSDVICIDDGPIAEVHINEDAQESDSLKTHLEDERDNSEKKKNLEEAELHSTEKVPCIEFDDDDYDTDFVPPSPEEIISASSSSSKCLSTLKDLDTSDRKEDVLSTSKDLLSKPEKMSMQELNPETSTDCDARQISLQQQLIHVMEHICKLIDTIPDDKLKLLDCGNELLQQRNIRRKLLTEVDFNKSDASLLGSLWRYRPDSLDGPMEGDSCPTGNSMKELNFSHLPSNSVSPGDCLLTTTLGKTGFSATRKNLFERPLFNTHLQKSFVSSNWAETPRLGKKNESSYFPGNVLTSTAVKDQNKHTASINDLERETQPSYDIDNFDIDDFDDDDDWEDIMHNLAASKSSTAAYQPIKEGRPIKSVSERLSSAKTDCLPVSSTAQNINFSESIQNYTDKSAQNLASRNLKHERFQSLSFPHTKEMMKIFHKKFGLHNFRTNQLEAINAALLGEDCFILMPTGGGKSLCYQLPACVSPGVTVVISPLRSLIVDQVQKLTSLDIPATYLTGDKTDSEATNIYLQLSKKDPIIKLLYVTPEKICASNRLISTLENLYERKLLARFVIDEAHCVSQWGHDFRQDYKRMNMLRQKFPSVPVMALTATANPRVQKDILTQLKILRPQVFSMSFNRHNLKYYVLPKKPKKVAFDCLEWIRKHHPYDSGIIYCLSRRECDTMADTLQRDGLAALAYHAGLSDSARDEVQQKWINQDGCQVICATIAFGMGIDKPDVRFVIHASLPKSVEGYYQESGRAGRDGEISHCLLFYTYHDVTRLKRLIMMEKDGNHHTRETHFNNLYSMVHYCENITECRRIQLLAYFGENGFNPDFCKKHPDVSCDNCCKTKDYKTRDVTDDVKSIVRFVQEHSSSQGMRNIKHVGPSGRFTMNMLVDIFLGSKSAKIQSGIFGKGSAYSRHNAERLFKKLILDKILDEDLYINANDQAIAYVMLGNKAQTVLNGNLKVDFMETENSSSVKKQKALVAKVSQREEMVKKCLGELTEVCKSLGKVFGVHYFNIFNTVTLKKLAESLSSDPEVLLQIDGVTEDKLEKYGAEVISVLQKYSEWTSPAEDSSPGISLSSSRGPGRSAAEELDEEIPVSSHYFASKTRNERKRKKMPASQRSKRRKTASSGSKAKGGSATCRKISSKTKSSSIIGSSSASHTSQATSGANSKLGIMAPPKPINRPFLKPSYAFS
UniProt Q9NUW8, sequence (Q9NUW8 whole entry, looked up): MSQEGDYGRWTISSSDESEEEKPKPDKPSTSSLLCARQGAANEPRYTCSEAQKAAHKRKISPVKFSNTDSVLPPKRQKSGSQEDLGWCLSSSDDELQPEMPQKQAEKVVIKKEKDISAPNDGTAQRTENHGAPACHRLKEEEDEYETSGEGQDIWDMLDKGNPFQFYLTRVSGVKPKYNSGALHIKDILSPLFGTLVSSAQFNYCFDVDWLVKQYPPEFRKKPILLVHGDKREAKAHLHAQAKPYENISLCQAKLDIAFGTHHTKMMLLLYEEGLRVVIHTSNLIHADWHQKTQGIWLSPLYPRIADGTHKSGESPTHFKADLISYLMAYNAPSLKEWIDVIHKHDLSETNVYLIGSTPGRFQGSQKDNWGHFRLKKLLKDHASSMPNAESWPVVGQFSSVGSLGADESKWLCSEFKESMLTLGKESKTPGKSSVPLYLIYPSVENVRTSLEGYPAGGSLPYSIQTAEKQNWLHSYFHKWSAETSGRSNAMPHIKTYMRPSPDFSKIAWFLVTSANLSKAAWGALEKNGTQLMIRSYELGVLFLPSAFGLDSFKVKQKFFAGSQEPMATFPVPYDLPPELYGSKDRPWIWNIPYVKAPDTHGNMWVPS
UniProt P11712, sequence (P11712 whole entry, looked up): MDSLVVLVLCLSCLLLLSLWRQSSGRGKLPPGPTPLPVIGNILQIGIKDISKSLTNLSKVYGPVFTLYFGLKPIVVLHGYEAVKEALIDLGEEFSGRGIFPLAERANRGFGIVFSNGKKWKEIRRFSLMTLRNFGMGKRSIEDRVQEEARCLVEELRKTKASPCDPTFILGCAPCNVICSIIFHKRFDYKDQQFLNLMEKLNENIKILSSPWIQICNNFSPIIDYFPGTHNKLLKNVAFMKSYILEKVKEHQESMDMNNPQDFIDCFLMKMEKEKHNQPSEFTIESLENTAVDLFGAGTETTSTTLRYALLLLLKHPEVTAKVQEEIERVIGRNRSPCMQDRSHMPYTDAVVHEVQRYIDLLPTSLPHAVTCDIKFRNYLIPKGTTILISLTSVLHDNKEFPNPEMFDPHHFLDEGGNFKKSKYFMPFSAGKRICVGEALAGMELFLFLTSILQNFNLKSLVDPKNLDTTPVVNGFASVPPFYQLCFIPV
UniProt P08684, sequence (P08684 whole entry, looked up): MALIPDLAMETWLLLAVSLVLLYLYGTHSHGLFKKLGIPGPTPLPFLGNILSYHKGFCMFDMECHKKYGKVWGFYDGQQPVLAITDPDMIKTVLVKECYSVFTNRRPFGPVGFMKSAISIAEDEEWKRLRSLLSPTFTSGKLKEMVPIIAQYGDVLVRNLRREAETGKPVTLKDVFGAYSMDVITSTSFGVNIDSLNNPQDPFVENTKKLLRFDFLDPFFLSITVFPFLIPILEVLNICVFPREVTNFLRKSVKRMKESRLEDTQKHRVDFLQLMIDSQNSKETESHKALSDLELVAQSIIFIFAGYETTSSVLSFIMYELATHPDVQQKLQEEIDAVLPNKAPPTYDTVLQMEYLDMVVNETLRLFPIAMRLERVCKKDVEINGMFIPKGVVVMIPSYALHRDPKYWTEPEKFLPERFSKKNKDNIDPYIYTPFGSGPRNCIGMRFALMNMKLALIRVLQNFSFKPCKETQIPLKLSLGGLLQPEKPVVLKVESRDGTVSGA
UniProt P04150, sequence (P04150 whole entry, looked up, the tested form may be a part): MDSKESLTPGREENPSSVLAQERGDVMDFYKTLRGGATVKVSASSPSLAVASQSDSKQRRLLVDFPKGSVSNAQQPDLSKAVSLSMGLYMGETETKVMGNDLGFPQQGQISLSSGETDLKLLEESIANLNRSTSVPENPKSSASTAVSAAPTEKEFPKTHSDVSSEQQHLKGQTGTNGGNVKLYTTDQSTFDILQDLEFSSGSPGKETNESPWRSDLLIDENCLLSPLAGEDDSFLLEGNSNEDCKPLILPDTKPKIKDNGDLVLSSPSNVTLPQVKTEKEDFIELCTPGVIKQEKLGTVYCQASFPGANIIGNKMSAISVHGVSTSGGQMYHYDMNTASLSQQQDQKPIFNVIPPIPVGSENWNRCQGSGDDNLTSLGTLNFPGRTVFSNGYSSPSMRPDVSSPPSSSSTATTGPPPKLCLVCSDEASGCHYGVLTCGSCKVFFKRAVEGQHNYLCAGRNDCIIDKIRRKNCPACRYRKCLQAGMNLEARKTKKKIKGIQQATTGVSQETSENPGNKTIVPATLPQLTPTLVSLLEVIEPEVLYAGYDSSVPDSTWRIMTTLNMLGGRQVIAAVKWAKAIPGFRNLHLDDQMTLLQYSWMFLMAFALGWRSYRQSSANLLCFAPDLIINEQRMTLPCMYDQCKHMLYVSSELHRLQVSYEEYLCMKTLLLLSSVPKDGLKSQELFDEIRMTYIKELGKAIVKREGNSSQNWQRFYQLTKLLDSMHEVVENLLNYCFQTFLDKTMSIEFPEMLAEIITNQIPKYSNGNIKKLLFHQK
UniProt P05177, sequence (P05177 whole entry, looked up): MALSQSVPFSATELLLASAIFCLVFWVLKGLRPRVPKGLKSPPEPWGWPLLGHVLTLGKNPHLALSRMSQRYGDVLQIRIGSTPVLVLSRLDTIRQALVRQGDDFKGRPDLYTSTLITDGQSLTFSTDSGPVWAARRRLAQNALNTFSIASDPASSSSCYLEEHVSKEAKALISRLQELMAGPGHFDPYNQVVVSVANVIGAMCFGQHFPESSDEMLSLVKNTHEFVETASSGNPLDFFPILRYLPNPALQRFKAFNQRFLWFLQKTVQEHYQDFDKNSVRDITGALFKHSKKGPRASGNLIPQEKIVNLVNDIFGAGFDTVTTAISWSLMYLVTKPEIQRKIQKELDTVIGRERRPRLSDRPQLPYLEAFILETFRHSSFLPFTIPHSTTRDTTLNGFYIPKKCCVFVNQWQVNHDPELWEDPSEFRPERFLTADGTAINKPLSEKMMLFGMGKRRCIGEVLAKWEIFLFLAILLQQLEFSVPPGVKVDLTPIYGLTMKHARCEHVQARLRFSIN

## COc1ccc(C(=O)N2CCC3(CCCN(c4ccc(-c5ccccc5)cc4)C3)CC2)cc1
[1]
  activity change, negative = inhibition: inconclusive: -56.8% [inhibitor]
[2]
  Potency: inactive
[3]
  Potency: inconclusive: 3.98 µM [inhibitor, single point]

## C[C@@]12CC[C@@H]3c4ccc(O)cc4C[C@H](CCCCCCCCCS(=O)CCCC(F)(F)C(F)(F)F)[C@H]3[C@@H]1CC[C@@H]2O (stereo not given in full)
[4]
  Potency: inconclusive: 31.6 µM [decreasing]

## COc1ccc(-c2coc3c(OC)c(OC)cc(O)c3c2=O)cc1
[5]
  Potency: inconclusive: 56.2 µM [inhibitor, partial curve, poor fit]

## Cn1c(=O)c(-c2ccc(Cl)cc2)nc2cnc(N3CCOCC3)nc21
[6]
  activity change, negative = inhibition: inconclusive: 30.3% [activator]
[7]
  activity, negative = inhibition: inconclusive: 58% [activator]
[2]
  Potency: inactive
[8]
  Potency: inconclusive: 3.16 µM [activator, full curve]
[3]
  Potency: active: 2.51 µM

## COc1ccc(NC(=O)N2CCCC3(CCN(C(=O)c4cccc(F)c4)CC3)C2)cc1
[1]
  activity change, negative = inhibition: inactive: -25.3%
[9]
  Potency: active: 29.5 µM

## Nc1ccc(CCNc2ncnc3c2ncn3C2OC(CO)C(O)C2O)cc1 (stereo not given)
[10]
  Potency: inconclusive: 7.94 µM [inhibitor, single point]
[11]
  Potency: inconclusive: 5.01 µM [inhibitor, partial curve, poor fit]
[12]
  Potency: inconclusive: 8.91 µM [inhibitor, partial curve]
[13]
  Potency: inconclusive: 7.94 µM [inhibitor, partial curve, poor fit]
[14]
  Potency: inconclusive: 14.1 µM [inhibitor, partial curve, poor fit]
[15]
  Potency: inconclusive: 0.0008 µM [inhibitor, full curve, poor fit]
[16]
  Potency: inconclusive: 8.28 µM [inhibitor, partial curve, poor fit]
[17]
  Potency: inconclusive: 0.366 µM [activator, full curve, poor fit]

## COc1ccc(C(=O)N2CCC3(CCCN(Cc4ccncc4)C3)CC2)cc1
[2]
  Potency: inactive
[18]
  Potency: active: 3.16 µM

## O=C(NCCc1ccc(Cl)cc1)c1ccc(Cn2c(=O)[nH]c3ccccc3c2=O)cc1
[19]
  Potency: inconclusive: 6.31 µM [inhibitor, full curve]

## NCCNC(=O)c1ccc(Cl)cc1
[7]
  activity, negative = inhibition: inactive: -2.11% [at 38 µM]
[20]
  Potency: inactive and inconclusive: 19 µM [inhibitor, single point]
[21]
  Potency: inconclusive: 10 µM [inhibitor, single point]
[22]
  Potency: inactive
[12]
  Potency: inactive
[14]
  Potency: inactive
[15]
  Potency: inconclusive: 25.1 µM [inhibitor, partial curve, poor fit]
